Data as given in patent US20180194862A1 (AbbVie / Abbott, published 2018).

Assays:
[1] = molecular target: T1, human CD40 on cells (HEK293 stable transfectants, HEK-Blue CD40 cells, human B cells, monocytic cells, … (human, UniProt P25942 21-277)); assay: cell-based or functional assay
[2] = molecular target: T1, human CD40 on cells (HEK293 stable …); assay: CD40 occupancy on B cells, -MSLN (n = 3)
[3] = molecular target: CD40 (binding assays of Example 4, Table 4-2); assay: antigen binding, format not stated
Chain of CD40 (binding assays of Example 4, Table 4-2) (P25942 21-277): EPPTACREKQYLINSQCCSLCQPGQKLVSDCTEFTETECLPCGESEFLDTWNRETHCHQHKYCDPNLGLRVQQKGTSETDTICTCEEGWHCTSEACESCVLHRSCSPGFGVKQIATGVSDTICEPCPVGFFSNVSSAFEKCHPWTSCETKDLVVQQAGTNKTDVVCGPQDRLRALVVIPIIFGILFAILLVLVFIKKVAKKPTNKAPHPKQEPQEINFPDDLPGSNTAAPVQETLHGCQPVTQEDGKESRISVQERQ

[4] = molecular target: T2, MSLN (binding assays of Example 4, Table 4-2) (Homo sapiens (Human), UniProt Q13421 296-598); assay: antigen binding, format not stated
T2 construct: also called mesothelin

[5] = molecular target: T1, human CD40 on cells (HEK293 stable …); assay: cell-based or functional assay; remark: listed apart in the source
cynomolgus mesothelin = molecular target: T3, cynomolgus mesothelin (cynomolgus); assay: SPR
T3 construct: also called cynoMSLN; Cyno MSLN

[6] = molecular target: T4, soluble form of the extracellular domain of cynomolgus (cyno) CD40 (Creative BioMart) (cynomolgus, UniProt G7PG38 21-193); assay: SPR
T4 construct: extracellular domain; also called Cynomolgus CD40

human mesothelin = molecular target: T5, human mesothelin (human, UniProt Q13421 296-580, limits assumed); assay: SPR
Chain of human mesothelin (Q13421 other isoform, or with tags, fused parts or gaps limits assumed): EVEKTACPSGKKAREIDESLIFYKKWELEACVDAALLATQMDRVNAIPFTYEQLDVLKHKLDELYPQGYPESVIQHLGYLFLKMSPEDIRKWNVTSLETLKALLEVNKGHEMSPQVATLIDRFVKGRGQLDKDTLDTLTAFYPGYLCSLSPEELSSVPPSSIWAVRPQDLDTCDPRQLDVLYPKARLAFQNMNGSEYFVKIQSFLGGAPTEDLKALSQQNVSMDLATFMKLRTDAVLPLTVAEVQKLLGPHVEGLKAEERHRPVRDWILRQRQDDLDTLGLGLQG
T5 construct: also called Human MSLN

[7] = molecular target: T6, soluble form of the extracellular domain of human CD40 (Creative BioMart) (human, UniProt P25942 in part); assay: SPR
T6 construct: Bought

B1: B40 (bispecific antibody, IgG1)
chain: EVQLQESGPGLVKPSETLSLTCTVSGYSITSNYYWNWIRQPPGKGLEWMGYIRYDGSNNYNPSLKNRVTISRDTSKNQFSLKLSSVTAADTAVYYCARLDYWGQGTTVTVSSDLSGGGGSGGGGSGGGGSGGGGSTGDAVMTQTPLSLSVTPGQPASISCRSSQSLENTNGNTFLNWYLQKPGQSPQLLIYRVSNRFSGVPDRFSGSGSGTDFTLKISRVEAEDVGVYYCLQVTHVPFTFGQGTKLEIKRLE[human IgG1 Fc with C220S V273E (EU numbers) not written out]VDGASSPVNVSSPSVQDISYELTQPPSVSVSPGQTASITCSGDKLGDKYASWYQQKPGQSPVLVIYQDNRRPSGIPERFSGSNSGNTATLTISGTQAMDEADYYCQAWDSDTYVFGTGTKVTVLGQDLSGGGGSGGGGSGGGGSGGGGSTGEVQLVQSGAEVKKPGASVKVSCKASGDTFKRYYVHWVRQAPGQGLEWMGIINPSGVSTTYAQKFQGRVTMTRDTSTSTVYMELSSLRSEDTAVYYCAEVRGSGFNYFGMDVWGQGTLVTVSS
notes: scFv-Fc-scFv: huAb9-5 (VH-VL), huIgG1 V273E, HuAM15 (VL-VH)
[1]
  B-cell CD23 EC50, +MSLN: 0.12 nM
  B-cell CD23 EC50, -MSLN: 10 nM
  B-cell CD86 EC50, +MSLN (HEK293 expressing mesothelin): 0.035 nM
  B-cell CD86 EC50, -MSLN: 1.4 nM
  B-cell proliferation EC50, +MSLN: 0.33 nM
  B-cell proliferation EC50, -MSLN: 22 nM
  moDC CD83 EC50, +MSLN: 0.15 nM
  moDC IL-12p70 EC50, +MSLN: 0.44 nM
[2]
  EC50: 5 nM
[3]
  EC50: 0.4 µg/mL
[4]
  EC50: 9 µg/mL

B2: V6-6 (bispecific antibody, IgG1)
chain: EVQLQESGPGLVKPSETLSLTCTVSGYSITSNYYWNWIRQPPGKGLEWMGYIRYDGSNNYNPSLKNRVTISRDTSKNQFSLKLSSVTAADTAVYYCARLDYWGQGTTVTVSSGGGGSGGGGSGGGGSGGGGSGGGGSGGGGSDAQMTQSPSSLSASVGDRVTITCRSSQSLENTNGNTFLNWFQQKPGKAPKLLIYRVSNRFSGVPSRFSGSGSGTDFTLTISSLQPEDFATYYCLQVTHVPFTFGQGTKLEIKR[human IgG1 Fc with C220S V263L (EU numbers) not written out]GGGGSGGGSGGGSGGGGSSYELTQPPSVSVAPGQTARISCSGDKLGDKYASWYQQKPGQAPVLVIYQDNRRPSGIPERFSGSNSGNTATLTISGTQAEDEADYYCQAWDSDTYVFGGGTKLTVLGQGGGGSGGGGSGGGGSGGGGSGGGGSGGGGSEVQLVQSGAEVKKPGASVKVSCKASGDTFKRYYVHWVRQAPGQGLEWMGIINPSGVSTTYAQKFQGRVTMTRDTSTSTVYMELSSLRSEDTAVYYCAEVRGSGFNYFGMDVWGQGTLVTVSS
notes: scFv-Fc-scFv, IgG1 V263L
[5]
  Max. IL-12p70, DC co-cultured with HEK293 expressing mesothelin: 300 pg/mL
Cynomolgus mesothelin
  Kd: 0.87 nM
  koff: 5.3e-05 s⁻¹
  kon: 61000 M⁻¹ s⁻¹
[6]
  Kd: 9.5 nM
  koff: 0.013 s⁻¹
  kon: 1.4e+06 M⁻¹ s⁻¹
Human mesothelin
  Kd: 2.4 nM
  koff: 3e-05 s⁻¹
  kon: 13000 M⁻¹ s⁻¹
[7]
  Kd: 13 nM
  koff: 0.014 s⁻¹
  kon: 1.1e+06 M⁻¹ s⁻¹
